Assay results reported in PubChem BioAssay AID485294 (National Center for Advancing Translational Sciences (NCATS), 2010).
“And” between values parts separate entries of the source, which are not always exact repeats. Equal values may be shown once. Screen size: about 370,000 compounds; about 150 (0.041%) were called active. Inconclusive results, whose numbers are uncertain, are shown with a selection of clear calls. Calls come from the whole dose curve; as a rule, active = well fitted inhibition curve with a large enough effect; inconclusive = small, poorly fitted or top-dose-only effect; inactive = flat fitted curve, though single readings scatter. Where the call is inconclusive, the potency comes from a doubtful curve fit.
Note: nearly all actives have a fitted effect of over 25% in size.
Potency is the fitted concentration of half-maximal effect; tags give direction and shape of the fitted curve.

Each compound was assayed against Beta-lactamase (Escherichia coli (strain K12)) (UniProt P00811) (assay: qHTS Inhibitors of AmpC Beta-Lactamase (assay with detergent)). Conditions: AmpC hydrolysis of nitrocefin, absorbance 480 nm, 0.01% Triton; series mostly up to 114 µM.
Chain of UniProt P00811 (P00811 whole entry, looked up): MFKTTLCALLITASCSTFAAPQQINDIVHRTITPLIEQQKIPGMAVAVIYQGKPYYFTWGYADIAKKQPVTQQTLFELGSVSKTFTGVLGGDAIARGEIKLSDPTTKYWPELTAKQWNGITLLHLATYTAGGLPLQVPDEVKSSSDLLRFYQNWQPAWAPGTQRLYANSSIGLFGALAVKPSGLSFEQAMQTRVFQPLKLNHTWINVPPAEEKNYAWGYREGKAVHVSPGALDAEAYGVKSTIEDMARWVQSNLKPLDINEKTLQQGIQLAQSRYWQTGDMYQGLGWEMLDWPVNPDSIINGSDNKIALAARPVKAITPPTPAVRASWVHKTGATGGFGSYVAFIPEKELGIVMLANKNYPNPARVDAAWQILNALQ
How it was run: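 20 mM phosphate pH 7.0 + 0.01% (detergent screen) or 0.0001% Triton X-100; 5.3 nM AmpC reagent; cpd preinc 15 min RT; nitrocefin (800 uM stock) to start; A480 q20 s × 4 min; Activity was normalised to no-enzyme and no-compound control wells.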
O=C(COc1ccc(F)cc1)Nc1ccc2nc(SCC(=O)N3CCc4ccccc43)sc2c1 was tested, and the Potency was “inactive”. For C[n+]1cccc(O)c1SCc1ccccc1, the Potency was “inactive”. Cc1ccc2c(c1)N(CC(=O)N1CCN(c3nc4ccccc4s3)CC1)C(=O)C(C)O2 (centres undefined) was tested, and the Potency was inconclusive: 0.708 µM [inhibitor, full curve, poor fit]. For CCCS(=O)(=O)N1CCCC(C(=O)NCCc2ccc(Cl)cc2)C1 (centres undefined), the Potency was inconclusive: 25.1 µM [inhibitor, full curve]. CCn1c(SCc2nc(CC(=O)Nc3ccccc3OC)no2)nnc1-c1cccs1 was tested, and the Potency was inconclusive: 112 µM [inhibitor, partial curve, poor fit]. With COc1ccc(N2CCN(C(=O)c3sc4nc(-c5ccc(F)cc5)cn4c3C)CC2)cc1 the Potency was inconclusive: 70.8 µM [inhibitor, partial curve, poor fit]. Clc1ccc(COc2ccccc2CNCc2cccnc2)cc1 was tested, and the Potency was inconclusive: 39.8 µM [inhibitor, single point]. For NC(=O)c1ccc(NC(=O)COC(=O)c2cccc(Oc3ccccc3)c2)cc1, the Potency was inconclusive: 28.2 µM [inhibitor, full curve, poor fit]. In the case of Cc1cccc(N2CCN(C3=NC(=O)C(=C4CCCCC4)S3)CC2)c1, the Potency is reported as inconclusive: 1.41 µM [inhibitor, full curve, poor fit]. COc1cc(C(=O)OCC(=O)NC2CCS(=O)(=O)C2)ccc1OCc1c(C)noc1C (centres undefined) was tested, and the Potency was inconclusive: 4.47 µM [inhibitor, full curve, poor fit]. O=C(/C=C/c1cccc(F)c1)N1CCc2ccccc21 was tested, and the Potency was inconclusive: 2.82 µM [inhibitor, full curve]. CCCOc1ccc2oc(=O)c3c(c2c1)CCCN3C(=O)CN1CCN(c2ncccn2)CC1 was tested, and the Potency was inconclusive: 39.8 µM [inhibitor, partial curve]. With CN1CCN(CCOc2ccc(Cc3ccccc3)cc2)CC1 the Potency was inconclusive: 0.355 µM [inhibitor, full curve, poor fit]. In the case of CCCC1CCC(=NNC(=O)OC(C)(C)C)CC1 (centres undefined), the Potency is reported as “inactive”. With CCN1CCN(CC(=O)N2N=C(c3cccs3)CC2c2ccc(F)cc2)C(=O)C1=O (centres undefined) the Potency was inconclusive: 3.16 µM [inhibitor, full curve, poor fit]. For COc1ccc(-c2cc(C(=O)Nc3cccnc3)c3ccccc3n2)cc1OC, the Potency was “inactive”. In the case of Cc1ccccc1NC(=O)c1cccc(N2C(=O)C3C4CC(C(Br)C4Br)C3C2=O)c1 (centres undefined), the Potency is reported as “inactive”. COc1ccc(C(=O)NCc2cn3c(C)csc3n2)cc1OC was tested, and the Potency was “inactive”. Cc1cccc(-n2c3nc(=O)[nH]c(=O)c-3cc3c(Cl)cccc32)c1C was tested, and the Potency was “inactive”. COc1ccc(CCN(C(=O)C(F)(F)F)C(C(=O)NC2CCCCC2)c2ccc(C)s2)cc1 (centres undefined) was tested, and the Potency was “inactive”. With Cc1cc(-c2n[nH]c(=S)n2Cc2ccccc2)cs1 the Potency was inconclusive: 39.8 µM [inhibitor, partial curve]. For CNCCCc1ccccc1, the Potency was “inactive”. For CN1Cc2cccnc2N(C)Cc2cc(Cl)ccc21, the Potency was “inactive”. COc1ccc2c(c1)CC(NC(=O)Nc1c(C)cc(C)cc1C)CO2 (centres undefined) was tested, and the Potency was “inactive”. In the case of O=C(NC(=S)NNC(=O)c1cccs1)c1ccc(Br)o1, the Potency is reported as inconclusive: 2.82 µM [inhibitor, full curve, poor fit]. CN1CCN(c2nc(N3CCN(c4ccccc4)CC3)ncc2F)CC1 was tested, and the Potency was “inactive”. With Cc1ccc(SCc2nc(-c3ccccc3)no2)cc1 the Potency was inconclusive: 1.58 µM [inhibitor, full curve]. Cc1ccccc1S(=O)(=O)Cc1ccc(C(=O)NC2CCCCC2)o1 was tested, and the Potency was inconclusive: 11.2 µM [inhibitor, partial curve]. For CCNC(=O)C(=O)c1c(-c2ccccc2)[nH]c2ccccc12, the Potency was inconclusive: 2.82 µM [inhibitor, full curve, poor fit]. O=C(CSc1cn[nH]n1)Nc1ccccc1C(=O)O was tested, and the Potency was inconclusive: 4.47 µM [inhibitor, full curve, poor fit]. For O=C(COC(=O)C1COc2ccccc2O1)Nc1cccc(S(=O)(=O)N2CCCCC2)c1 (centres undefined), the Potency was inconclusive: 2.51 µM [inhibitor, full curve, poor fit]. With O=C(Cn1cnc([N+](=O)[O-])n1)c1ccc(O)c(O)c1 the Potency was “inactive”. In the case of O=C(NCc1ccncc1)C(=O)Nc1nc(C23CC4CC(CC(C4)C2)C3)cs1, the Potency is reported as inconclusive: 5.01 µM [inhibitor, full curve, poor fit]. For COc1ccccc1CNc1nc(SC)ncc1CO, the Potency was inconclusive: 0.501 µM [inhibitor, full curve]. For C=CCN(C(=O)Nc1ccc(Cl)cc1)C1CC(=O)N(c2ccc(OC)cc2)C1=O (centres undefined), the Potency was inconclusive: 11.2 µM [inhibitor, partial curve]. With Cc1c(C(=O)N2CCN(Cc3ccc4c(c3)OCO4)CC2)cccc1[N+](=O)[O-] the Potency was inconclusive: 5.62 µM [inhibitor, full curve, poor fit]. Cc1ccsc1/C=N/n1c(COc2ccccc2)n[nH]c1=S was tested, and the Potency was inconclusive: 0.562 µM [inhibitor, full curve, poor fit]. With COc1ccc(NC(=O)C2=Cc3cccc(OC)c3OC2)cc1 the Potency was “inactive”. With COCCN=C1N[C@@H](c2ccccc2)C(C(=O)OC)=C(C)N1Cc1ccccc1 the Potency was inconclusive: 1.26 µM [inhibitor, full curve, poor fit] and inconclusive: 14.1 µM [inhibitor, full curve, poor fit]. Cc1cccc(OC(=O)c2cc(-c3ccc4c(c3)OCCO4)on2)c1 was tested, and the Potency was “inactive”. In the case of CC(=O)Oc1ccc(/C=C(\NC(=O)c2ccco2)C(=O)NCc2ccco2)cc1, the Potency is reported as “inactive”. In the case of S=C(NCc1cccnc1)Nc1ccc2c(c1)OCO2, the Potency is reported as inconclusive: 44.7 µM [inhibitor, partial curve, poor fit]. In the case of CCOC(=O)CNC(=O)N1CCc2cc(S(=O)(=O)N3CCC(C)CC3)ccc21, the Potency is reported as “inactive”. In the case of O=C(O)c1ccc(N/N=C2/CCSc3ccc(F)cc32)cc1, the Potency is reported as “inactive”. Cc1cccc(-c2ncc(CN3CCN(C4CCCC4)C(CCO)C3)cn2)c1 (centres undefined) was tested, and the Potency was “inactive”. With O=C(CSc1nnc(NC(=O)c2ccco2)s1)Nc1cccc(F)c1 the Potency was “inactive”. With N#Cc1c(NC(=O)CSc2nc(N)cc(=O)[nH]2)sc2c1CCCCCC2 the Potency was inconclusive: 1.41 µM [inhibitor, full curve, poor fit]. CN(Cc1ccccc1)c1nc(N)nc(Cl)c1C=O was tested, and the Potency was inconclusive: 0.708 µM [inhibitor, full curve, poor fit]. For Cc1nc2ccc(S(=O)(=O)Nc3cccc(-c4nc5cccnc5s4)c3C)cc2s1, the Potency was inconclusive: 112 µM [inhibitor, partial curve, poor fit]. For COC(=O)[C@H](CC(C)C)NC(=O)Nc1ccc2c(c1)OCCO2, the Potency was inconclusive: 112 µM [inhibitor, partial curve, poor fit]. For Cc1nnc(SCC(=O)N/N=C/c2ccc(-c3ccc(C)c(Cl)c3)o2)s1, the Potency was “inactive”. CCOC(=O)N1CCN(S(=O)(=O)c2ccc3c(c2)CCN3C(=O)C2CCC2)CC1 was tested, and the Potency was inconclusive: 100 µM [inhibitor, single point]. In the case of COc1ccccc1NC(=S)N1CCN(Cc2ccc3c(c2)OCO3)CC1, the Potency is reported as inconclusive: 112 µM [inhibitor, partial curve, poor fit]. With Cc1ccc(-c2nc3ccccc3c(=O)n2-n2cccc2)cc1 the Potency was inconclusive: 8.91 µM [inhibitor, full curve, poor fit]. Cc1cccc(-c2nsc(SCC(=O)c3ccc(Cl)cc3)n2)c1 was tested, and the Potency was inconclusive: 5.01 µM [inhibitor, full curve, poor fit]. For O=C(CN1C(=O)CCc2cc(S(=O)(=O)N3CCOCC3)ccc21)Nc1cccc(Cl)c1, the Potency was “inactive”. CC1(C)Nc2ccccc2C(=O)N1c1ccccc1 was tested, and the Potency was inconclusive: 5.01 µM [inhibitor, single point]. For N#Cc1c(/N=C/c2c(O)n(Cc3ccco3)c(=O)[nH]c2=O)sc2c1CCCC2, the Potency was inconclusive: 44.7 µM [inhibitor, partial curve, poor fit]. In the case of CC(=O)Nc1ccc(C2=NN(Cc3nnc(-c4ccccc4)o3)C(=O)SC2)cc1, the Potency is reported as inconclusive: 14.1 µM [inhibitor, partial curve]. CCn1c(=O)c(C(=O)Nc2ccccc2C)c(O)c2ccccc21 was tested, and the Potency was inconclusive: 79.4 µM [inhibitor, partial curve, poor fit]. With CC(=O)c1c(C)[nH]c(C(=O)OCC(=O)N(C)c2c(N)n(Cc3ccccc3)c(=O)[nH]c2=O)c1C the Potency was inconclusive: 5.62 µM [inhibitor, full curve, poor fit]. O=C(COc1ccc(Nc2ccccc2)cc1)Nc1ccncc1 was tested, and the Potency was inconclusive: 3.55 µM [inhibitor, full curve, poor fit]. CCOC(=O)c1ccc(N2CN(CC)CNC2=S)cc1 was tested, and the Potency was “inactive”. In the case of CCCn1c(NC(=O)C2CCN(C(=O)c3ccccc3C)CC2)nc2ccccc21, the Potency is reported as inconclusive: 0.631 µM [inhibitor, full curve]. COc1cccc(N=c2oc3ccccc3cc2-c2nc3ccccc3[nH]2)c1 was tested, and the Potency was inconclusive: 3.98 µM [inhibitor, full curve]. For CCC(O)C(C)(C)C (centres undefined), the Potency was “inactive”. Oc1c(CN2CCOCC2)ccc2ccccc12 was tested, and the Potency was “inactive”. For CCOC(=O)c1c(C)nc2sc(C(=O)Nc3ccccc3)c(N)c2c1-c1ccc(OC)cc1, the Potency was inconclusive: 1 µM [inhibitor, full curve]. For CCOC(=O)CCC(=O)NCc1ccc2[nH]c(C)cc2c1, the Potency was inconclusive: 89.1 µM [inhibitor, single point].
